The RNAGym collection of RNA variant scans (doi:10.1073/pnas.2313332121)
Variants at the background level are over-represented here.

B1: TPR 5TU (parent)
chain: GGAUCUUCUCGAUCUAACAAAAAAGACAAAUCUGCCACAAAGCUUGAGAGCAUCUUCGGAUGCAGAGGCGGCAGCCUUCGGUGGCGCGAUAGCGCCAACGUUCUCAACUAUGACACGCAAAACGCGUGCUCCGUUGAAUGGAGUUUAUCAUG

Variants of: B1
Assay: polymerase ribozyme fitness, log enrichment relative to wild type (log ratio); higher = more active; in vitro selection for triplet polymerase activity
Procedure, shortened: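 Only genotypes with ≥10 input reads and ≥1 read per output were kept after Illumina sequencing of input and output libraries. These libraries were PCR-built, transcribed mutants of each subunit of a heterodimeric triplet polymerase ribozyme, each put through one triplicate in vitro selection round with frozen incubation at −7 °C, gel excision of extended constructs, streptavidin-bead capture and RT-PCR. Fitness is a logarithmic ratio of genotype enrichment to wild-type enrichment, from inverse-variance-weighted replicate averages, with the logarithm in base 2.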

Row | Variant | polymerase ribozyme fitness (log ratio)
1 | GGAUCUUCUCGAUCGAAGAAAAAAGACAAAUCUGCCACAAAGCUUGAGAGCAUCUUCGGAUGCAGAGGCGGCAGCCUUCGGUGGAGAGAUAGCGCCAACGUUCUCCACUAUGACACGCAAAACGCGUGCUCCGUUGAAUGGGGUUUAUCAUG | ≤ -4.2
2 | GGAUCUUCUCGAUCGAACAAAAAAGACAAAUCUGCCACAAAGCUUGAGAGCAUCUUCGGAUGCAGAGGCGGCCGCCUUCGGUGUCGCGAUAGCGCAAACGUUGUCAACUGUGACACGCAAAACGCGUGCUCCGUUGCAUGGAGUUUAUCAUG | ≤ -4.2
3 | GGAUCUUCUCGAUCGAACAAAAAAGACAAAUCUGCCACAAAGCUUGAGAGCAUCUUCGGAUGCAGCGGCGGCAGCCUUCGGUGGCGCGAUAUCGCCAACGUUCUCAACUAUGACACGCAAAACGCGUGCUCCGUUGAAUGGAGUUUAUCAUG | ≤ -4.2
4 | GGAUCUUCUCGAUCGAACAAAAAAGACAAAUCUGCCACAACGCUUGAGAGCAUCUUCGGAUGCAGAGGCGGCAGCCUUCGGUGGCGCGAUAGCGCCAACGUUCUCACUUAUGACACGCAAAACGCGUGCUCCGUUGAAUGGAGUUUAUCAUG | ≤ -4.2
5 | GGAUCUUCUCGAUCGAACAAAAGAGACAAAUCUGCCACAAAGCUUGAGACGAUCUUCGGAUGGAGAGGCGGCAGCCUUCGGUGGCGCGAUAGCGCGAACGUUCUCAACUAUGACACGCAAAACGCGUGCUCCGUUGAAUGGAGUUUAUCAUG | ≤ -4.2
6 | GGAUCUUCUCGAUCGAACAAAAAAGACCAAUCUGCCACAAAGCAUGAGAGCAUCUUAAGAUGCAGAGGCGGCAGCCUUCGGUGGCGCGAUUGCGCCAACGUACUCAACUAUGACACGCAAAACGCGUGCUCCGAUGAAUGGAGUAUAUCAUG | ≤ -4.2
7 | GGAUCUUCUCGAUCGAACAAAUAAGACAAAUCUGCCACAAAGCUUGAGAGCAUCUUCUGAUGCAGAGGCGUUAGCCUUCGGUGGCGCGAUGGCGCCAACGUUCUCAACUAUGACACGCAAAACGCGUGCUCCGUUGAAUGGAGUUUAUCAUG | ≤ -4.2
8 | GGAUCUUCUCGAUCGAACAAAAAAGAGAAAUCUGCCACAAAGCUUGAGAGCAUCUUCGGAUGCAGAGGCGGCAGCUUUCGGUGGCGGGAUAGCGCCAACGUUCUCAACUAUGACACGCAAAACGCGUGCUCCGUUGAAUGGAGUUUAUCAUG | ≤ -4.2
9 | GGAUCUUCUCGAUCGAACAAAAAAGACAAAUCUGCCACAAAGCUUGAGAGCAUCUUCGGAUGCAGAGGCGGCAGCCUUCGGUGGCGCGAUAGCGCCAACGUUCUCACCUAUGACACGCAAAACACGUGCUCCGUUGAAUGGAGUUUAUCAUG | ≤ -4.2
10 | GGAUCUUCUCGAUCGAACAAAAAAGACAAAUCUGCCACAAAGUUUGAGAGCAUCUUCGGAUGCAGUGGCGGCAGCCUUCGGUGGCGCGAUAGCGUCAAUGUUCUCAACUAUGACACGCAAAACGCGUGCUAUGUUGAAUUGCGUUUAUCAUG | ≤ -4.2
11 | GGAUCUUCUCGAUCGAACAAAGAAGACAAAUCUGCCACAAAGCUUGAGAGCAUCUGCGGAUGCAGAGGCGGCAGCCUUCGGUGGCGCGAUAGCGCUAACGUUCUCAACUAUGACACGCAAUACGCGUGCUCCGUUGAAUGGAGUUUAUCAUG | -0.722
12 | GGAUCUUCUCGAUCGAACAAAAAAGACAGACCUGCCACUAAGCUUGAGAGAAUCUUCCGAUGCAGAGGCGGCAGCCUUCGGUGGCGCGAUAGCGCCAACGUUCUCAACUAUGACACGCAAAACGCGUGCUCCGUUGAAAGGAGUUUAUCAUG | ≤ -4.2
13 | GGAUCUUCUCGAUCGAACAAAAAAGACAAAUCUGCCAGAAAGCUUGAGAGCAUCUUCGGAUGCAGAGGCGGCAGCCUUCGGUGGCGAGAUAGCGCCAACGUCCUCAACUAUGACACGCAAAACGCGUGCUCCGUUGAAUGGAGUUUAUCAUG | ≤ -4.2
14 | GGAUCUUCUCGAUCGAACAAAAAAGACUAAUCUGCCAUAAAGCUUGAGAGCAUCUUCGGAUGCAGAGGCGGCAGCCUUCGGUGGCGCGAUAGCGCCAACGUUCUCAACUAUGACACGCGAAACUCGUGCUCCGUUGAAUGGAGUUUAUCAUG | ≤ -4.2
15 | GGAUCUUCUCGAUCGAACAAAUAAGACAAAUCUGCCACAAAUCUUGAGAGCAUCUUCGGAUGCAGAGGCGGCAGCCUUCGGUGGAGCGAUAGCGCCAACGUUCUCAACUAUGACACGCAAAACGCGUGCUCCGUUGAAUGGAGUUUAUCCUG | ≤ -4.2
16 | GGAUCUUCUCGAUCGAACAAAAAAGACAAAUCUGCCACAAAGCUUGAGAGCAUCUUCGGAUGCAGAGGCGGCAGCCUUCGGUGGCGCGAUGGCGCCAACGUUCUCAACUAUGACACGCAAAACGCGUGCUCAGUUGAAAGGAGUUUAUCAUG | ≤ -4.2
17 | GGAUCUUCUCGAUCGAACAAAAAAGACAAAUCUGCCACAGUACUUGAGAGCAUCUUCGGAUGCAGAGGCGGCAGCCUUCGGUGGCGCGAUAGAGCCAACGUGCUCAACUAUGACACGCAAAACGCGUGCUCCGUUGAAUGGAGUUUAUCAUG | ≤ -4.2
18 | GGAUCUUCUCGAUCGAACAAAAAAGAUAAAUCUGCCACAAAGCAUGAGAGCAUCUUCGGAUGCAGAGGCGGCAGCCUUCGGUGGCGCGAUAGCGCCAACGUUCUCAACUAUGCCACGCAAAACGCGUGCUCCGUUGAAUGGAGUUUAUCAUG | ≤ -4.2
19 | GGAUCUUCUCGAUCGAACAAAAAAGACAAGUCUGCCACAAAGCUUGAGAGCAUAUUCGGAUGCAGAGGCGGCAGCCUUCGGUGGCGCGAUAGCGCCAACGUUCUCAACUAUGACACGCAAAACGCGUGCUCCGUUGAAUGGAGUUUAUCAUG | ≤ -4.2
